Measurements reported in PubChem BioAssay AID488969 (Vanderbilt High Throughput Screening Facility, 2010).
Over roughly 110,000 compounds, “z-score” has its median near -0.1; the highest 2% begin near 2. The list shows a part of the results.

The molecules below were run against Metabotropic glutamate receptor 8 (Rattus norvegicus) (UniProt P70579) (assay: rat mGluR8 modulators via GIRK flux, primary screen, cell-based, thallium flux, HTS (AID 488969)). Details: HEK293 rat mGluR8, GIRK (G protein-gated inwardly rectifying potassium channel) thallium flux, FluoZin2; at 10 µM; stronger effect = higher value; submaximal glutamate (EC20) added with thallium.
Chain of UniProt P70579 (P70579 whole entry, looked up): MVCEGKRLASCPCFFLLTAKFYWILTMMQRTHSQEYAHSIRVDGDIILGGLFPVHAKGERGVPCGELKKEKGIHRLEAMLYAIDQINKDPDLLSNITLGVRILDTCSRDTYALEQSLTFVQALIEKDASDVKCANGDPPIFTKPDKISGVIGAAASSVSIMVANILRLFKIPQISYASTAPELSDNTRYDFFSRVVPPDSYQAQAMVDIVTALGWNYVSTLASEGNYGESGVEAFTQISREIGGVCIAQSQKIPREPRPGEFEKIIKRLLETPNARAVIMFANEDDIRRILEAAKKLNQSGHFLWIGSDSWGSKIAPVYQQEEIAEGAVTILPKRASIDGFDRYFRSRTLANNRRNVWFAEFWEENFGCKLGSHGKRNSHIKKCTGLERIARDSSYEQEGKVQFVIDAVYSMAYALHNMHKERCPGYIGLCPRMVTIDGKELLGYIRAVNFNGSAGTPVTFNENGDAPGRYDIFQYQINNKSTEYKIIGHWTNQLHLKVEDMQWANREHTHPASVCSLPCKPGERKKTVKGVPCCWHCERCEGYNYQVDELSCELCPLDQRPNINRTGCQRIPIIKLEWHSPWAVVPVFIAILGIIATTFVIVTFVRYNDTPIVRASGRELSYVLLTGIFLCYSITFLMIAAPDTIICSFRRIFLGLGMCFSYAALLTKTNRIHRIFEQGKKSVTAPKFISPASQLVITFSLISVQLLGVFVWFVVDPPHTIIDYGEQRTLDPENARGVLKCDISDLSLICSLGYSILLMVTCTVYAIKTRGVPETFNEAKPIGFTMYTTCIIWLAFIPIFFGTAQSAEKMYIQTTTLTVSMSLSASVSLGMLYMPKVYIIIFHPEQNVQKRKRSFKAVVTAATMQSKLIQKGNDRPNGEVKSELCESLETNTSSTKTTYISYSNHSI

In order of falling z-score:
1. COC(=O)c1ccc(C2C(C(=O)OCC(C)C)=C(C)N=C3SCCC(=O)N32)cc1 (stereo unspecified)  1.35
2. CCOc1nc(-c2ccccc2O)nc2ccccc12  0.892
3. Cc1ccc(CSc2nncn2-c2ccccn2)cc1  0.733
4. CC(C)CCn1c(CN2CCN(Cc3ccccc3)CC2)nc2c1c(=O)n(C)c(=O)n2C  0.709
5. Cc1cc(C(=O)Nc2nc3c(s2)CCCC3)no1  0.438
6. CC(C)CNc1c(N)c(=O)oc2ccccc12  0.318
7. O=C(c1ccc(Cl)c(S(=O)(=O)N2CCCCCC2)c1)N1CCN(CCO)CC1  0.275
8. CCC(=O)NC(=S)Nc1cccc(C(C)=O)c1  0.175
9. COc1ccc(NC(=O)C2CCCN(S(=O)(=O)c3ccc4c(c3)oc(=O)n4C)C2)cc1OC (stereo unspecified)  0.13
10. Cc1ccc(Nc2nc(C)cc(C)c2C(N)=O)cc1  0.12
11. CC1=CC(=C(C#N)C#N)C=C(C)N1CCN1CCN(C(=O)Nc2cccc(Cl)c2)CC1  0.093
12. CN(C)C(=O)c1ccccc1-c1ccccc1  0.0914
13. CC(N)C12CC3CC(CC(O)(C3)C1)C2 (stereo unspecified)  0.0862
14. CCOC(=O)N1CCN(C(=O)CN(c2ccc(OC)cc2)S(C)(=O)=O)CC1  0.0562
15. CCN(CC(=O)Nc1ccc(N2CCOCC2)cc1)Cc1nc2ccccc2c(=O)[nH]1  0.0413
16. COc1cccc(N2CC(C)Cn3c2nc2c3c(=O)n(CCN3CCOCC3)c(=O)n2C)c1 (stereo unspecified)  0.0399
17. O=c1ccc(/C=C/c2ccccc2)nn1Cc1ccccc1  -0.00241
18. CCN(CC)CCP(=O)(c1ccccc1)c1ccccc1  -0.0169
19. Cc1ccc(N(C(C)C(=O)Nc2cc(Cl)ccc2Oc2ccccc2)S(C)(=O)=O)cc1 (stereo unspecified)  -0.0281
20. CSc1ccc(/C=C/C(=O)c2ccc(NC(=O)Cc3ccccc3)cc2)cc1  -0.0401
21. CC1(c2ccccc2)NC(=O)N(Cc2ccc([N+](=O)[O-])cc2)C1=O (stereo unspecified)  -0.0601
22. CCn1c(Cc2c(C)[nH]c3ccccc23)nnc1SCC(N)=O  -0.0619
23. CCOc1ccc(CC(C(=O)NN)C(=O)NN)cc1CN(C)C  -0.0777
24. CCOCC(=O)Nc1ccc(C)c(Cl)c1  -0.115
25. Cc1ccc2nc(SCC(=O)Nc3cc(C)on3)[nH]c2c1  -0.134
26. CCOc1ccc(NC(=O)CSc2nc3cccnc3n2CCOC)cc1  -0.17
27. N#Cc1c(-c2ccccc2)cc2nc3ccccc3n2c1N  -0.183
28. CCCc1nc2ccc(NC(=O)c3ccco3)cc2c(=O)n1Cc1ccc(Cl)cc1  -0.191
29. Cc1cc(C)c(NC(=O)CN2CCOCCOCCOCCOCC2)c(C)c1  -0.281
30. O=C(c1cccc(C(=O)N2CCN(c3ccccc3)CC2)c1)N1CCN(c2ccccc2)CC1  -0.329
31. COc1cc(CN(C)CCc2ccccc2)ccc1OCc1ccccc1  -0.78
